Our source for the TetR repression strength values is a collection of fitness landscapes (doi:10.1038/s41467-024-54723-y).

Over roughly 18,000 sequences, “TetR repression strength (sort-seq, GFP reporter)” has its median near 0.23; the highest 2% begin near 0.68. The list shows a part of the results.

This assay addresses TetR (class B, Tn10) (UniProt P04483). In words: TetR repression strength (sort-seq, GFP reporter) (relative to tetO2 = 1); higher = stronger repression. To be noted: E. coli. The procedure, abridged: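 E. coli SIG10-MAX carried a low-copy plasmid library with eight randomized operator positions between a constitutive promoter and sfGFP, with TetR constitutively expressed. Cells grew 5 h at 37 °C in LB with 50 µg/mL chloramphenicol, then 10^6 cells were FACS-sorted into 13 fluorescence bins, each Illumina-sequenced. Repression strength is the top bin index plus one minus the read-weighted mean bin, divided by the wild-type operator value. Three independent transformations; variants with ≥30 reads in all replicates and CV ≤0.5 were averaged.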
Chain of UniProt P04483 (P04483 whole entry): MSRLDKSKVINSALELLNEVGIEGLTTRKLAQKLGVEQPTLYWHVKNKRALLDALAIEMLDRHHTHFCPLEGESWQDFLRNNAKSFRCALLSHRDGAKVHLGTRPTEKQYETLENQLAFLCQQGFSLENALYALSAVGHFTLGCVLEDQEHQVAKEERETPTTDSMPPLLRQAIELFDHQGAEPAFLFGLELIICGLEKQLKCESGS
TCCCGGTCAGTCCTCGAGA showed a TetR repression strength of 0.15.
TCCCGCTAAGTCATCGAGA had a TetR repression strength of 0.167.
As to TCCCTCGTAGTGAACGAGA, the TetR repression strength turned out to be 0.226.
The sequence TCCCGGGCAGTGTGAGAGA gave a TetR repression strength of 0.386.
In the case of TCCCAACCAGTTGCTGAGA it was 0.198; in that of TCCCCGGGAGTCGCTGAGA, 0.406.
As for TCCCGGTGAGTAGGCGAGA, the TetR repression strength was 0.0704.
TCCCCGGGAGTGTAAGAGA showed a TetR repression strength of 0.213.
In turn, TCCCTGACAGTGAAAGAGA yielded a TetR repression strength of 0.0543.
With TCCCGCCTAGTTCGTGAGA, the TetR repression strength turned out to be 0.0765.
On to TCCCTCAAAGTGTACGAGA, for which the TetR repression strength was found to be 0.165.
The sequence TCCCTTCGAGTAGCCGAGA had a TetR repression strength of 0.623.
In turn, TCCCTACTAGTTGGAGAGA returned a TetR repression strength of 0.196.
For TCCCGTCAAGTGGCTGAGA, the TetR repression strength is 0.13.
In turn, TCCCGTGGAGTGACAGAGA showed a TetR repression strength of 0.221.
TCCCGAGTAGTTCTGGAGA yielded a TetR repression strength of 0.266.
Regarding TCCCAGGGAGTTGGTGAGA, the TetR repression strength was found to be 0.0385.
For the sequence TCCCACGGAGTCGGGGAGA, the TetR repression strength was found to be 0.23.
The sequence TCCCTAATAGTCCCTGAGA returned a TetR repression strength of 0.387.
In the case of TCCCTCATAGTGGTTGAGA, the TetR repression strength was found to be 0.177.
The value for TCCCCAGTAGTGCTGGAGA was 0.0383; that for TCCCGATCAGTGGGTGAGA was 0.395.
Regarding TCCCGTTTAGTCGGTGAGA, the TetR repression strength was found to be 0.101.
The value for TCCCGGTTAGTACAAGAGA was 0.214.
In the case of TCCCGTTGAGTTCTGGAGA it was 0.207.
Sequence TCCCGGCCAGTGTCTGAGA returned a TetR repression strength of 0.204.
Sequence TCCCCGACAGTCTGTGAGA gave a TetR repression strength of 0.284.
For TCCCATCGAGTAAGAGAGA, the TetR repression strength was 0.347.
In the case of TCCCAGGGAGTACTAGAGA, the TetR repression strength was found to be 0.414.
Sequence TCCCTCATAGTCATTGAGA had a TetR repression strength of 0.257.
With TCCCGTGCAGTAGAGGAGA, the TetR repression strength is 0.206.
In turn, TCCCTGGGAGTAGATGAGA showed a TetR repression strength of 0.203.
Sequence TCCCGAACAGTGGCAGAGA came in with a TetR repression strength of 0.236.
The value for TCCCGTTAAGTGGTAGAGA was 0.
For the sequence TCCCGTTAAGTCACTGAGA, the TetR repression strength came out at 0.161.
As to TCCCCAACAGTGGAAGAGA, the TetR repression strength was 0.191.
Sequence TCCCCAGTAGTCCCTGAGA displayed a TetR repression strength of 0.945.
Sequence TCCCCACGAGTGATTGAGA yielded a TetR repression strength of 0.314.
In turn, TCCCTGGAAGTTAGTGAGA came in with a TetR repression strength of 0.146.
TCCCCGATAGTCGGGGAGA gave a TetR repression strength of 0.0848.
Regarding TCCCCTTGAGTTGCTGAGA, the TetR repression strength was found to be 0.383.
In turn, TCCCGTTCAGTGTGTGAGA returned a TetR repression strength of 0.354.
TCCCGGGGAGTGAAGGAGA: the TetR repression strength worked out at 0.211.
In turn, TCCCTTTCAGTTTCGGAGA yielded a TetR repression strength of 0.422.
In the case of TCCCGTAGAGTGAGGGAGA, the TetR repression strength turned out to be 0.229.
As to TCCCTACAAGTGTTGGAGA, the TetR repression strength is 0.118.
In the case of TCCCTGAGAGTGCGGGAGA, the TetR repression strength was found to be 0.309.
On to TCCCTAGAAGTATGCGAGA, for which the TetR repression strength worked out at 0.171.
On to TCCCACATAGTTACAGAGA, for which the TetR repression strength came to 0.109.
As for TCCCTAATAGTTGTTGAGA, the TetR repression strength stood at 0.207.
The sequence TCCCGCGCAGTCGATGAGA gave a TetR repression strength of 0.
The sequence TCCCGGTCAGTGGCTGAGA had a TetR repression strength of 0.659.
With TCCCTTTTAGTTGAGGAGA, the TetR repression strength stood at 0.327.
The value for TCCCTGCTAGTACAAGAGA was 0.353; that for TCCCAAGAAGTATAGGAGA was 0.262.
TCCCAGTGAGTTAGGGAGA had a TetR repression strength of 0.144.
Turning to TCCCTGGCAGTGGGAGAGA, the TetR repression strength amounted to 0.11.
The value for TCCCGTAGAGTCGATGAGA was 0.715.
On to TCCCTTGTAGTCACCGAGA, for which the TetR repression strength is 0.257.
TCCCAGAAAGTCGGCGAGA returned a TetR repression strength of 0.173.
TCCCTCCGAGTTATGGAGA: the TetR repression strength was found to be 0.194.
In the case of TCCCACGGAGTCGAAGAGA, the TetR repression strength came to 0.187.
Consider TCCCAGGAAGTCATGGAGA, for which the TetR repression strength was found to be 0.408.
As to TCCCGTGCAGTCGGCGAGA, the TetR repression strength is 0.0546.
Consider TCCCGGCCAGTGCAAGAGA, for which the TetR repression strength was determined as 0.214.
Consider TCCCCGAGAGTATTGGAGA, for which the TetR repression strength is 0.201.
TCCCACAAAGTTGGAGAGA returned a TetR repression strength of 0.358.
In the case of TCCCCCGAAGTGGTAGAGA it was 0.382.
TCCCAGGTAGTGGGCGAGA: the TetR repression strength came out at 0.186.
In the case of TCCCGCGTAGTTGCAGAGA it was 0.0504.
Regarding TCCCGCTCAGTGCGGGAGA, the TetR repression strength was determined as 0.226.
TCCCTGTAAGTCAGTGAGA showed a TetR repression strength of 0.131.
In turn, TCCCAGATAGTCAACGAGA came in with a TetR repression strength of 0.324.
Regarding TCCCTGTCAGTTCCTGAGA, the TetR repression strength was 0.36.
In turn, TCCCTTATAGTGCGGGAGA registered a TetR repression strength of 0.
Turning to TCCCCAGCAGTGATGGAGA, the TetR repression strength is 0.2.
In turn, TCCCAGGTAGTTGCCGAGA came in with a TetR repression strength of 0.111.
In the case of TCCCCTGAAGTTCTTGAGA it was 0.223.
The sequence TCCCTACTAGTGCCTGAGA registered a TetR repression strength of 0.274.
TCCCACGGAGTACGGGAGA: the TetR repression strength worked out at 0.34.
With TCCCGGCTAGTGGACGAGA, the TetR repression strength was 0.182.
For the sequence TCCCGTTCAGTGTGAGAGA, the TetR repression strength came out at 0.246.
TCCCGCAGAGTTGGGGAGA displayed a TetR repression strength of 0.39.
Sequence TCCCGCCGAGTTGAAGAGA came in with a TetR repression strength of 0.254.
In the case of TCCCTGTGAGTGAAGGAGA it was 0.3; in that of TCCCTCCAAGTGTCGGAGA, 0.39.
In turn, TCCCGGACAGTGTGGGAGA yielded a TetR repression strength of 0.148.
In the case of TCCCGGGCAGTACCCGAGA, the TetR repression strength was determined as 0.106.
In the case of TCCCGCGTAGTCGCAGAGA it was 0.138; in that of TCCCGATAAGTTCACGAGA, 0.415.
The sequence TCCCCGGCAGTAGTGGAGA yielded a TetR repression strength of 0.131.
The value for TCCCAGGCAGTTTAGGAGA was 0.14.
The value for TCCCTTACAGTTGAGGAGA was 0.074.
With TCCCGGTGAGTTGGGGAGA, the TetR repression strength turned out to be 0.28.
Sequence TCCCATATAGTTGGAGAGA returned a TetR repression strength of 0.0713.
For TCCCGCTCAGTCAAGGAGA, the TetR repression strength amounted to 0.351.
The sequence TCCCTGTCAGTTCAGGAGA yielded a TetR repression strength of 0.0968.
In the case of TCCCCTGAAGTAGCTGAGA it was 0.365.
Take TCCCAGGTAGTAGCCGAGA: the TetR repression strength stood at 0.295.
In turn, TCCCTGCCAGTCTGCGAGA registered a TetR repression strength of 0.24.
TCCCGAGTAGTAGCAGAGA registered a TetR repression strength of 0.253.
For TCCCGCGGAGTTGTCGAGA, the TetR repression strength stood at 0.221.
